Here are results for 15 compounds from patent publication US11178870B2 (priority 2017, dated 2021).

What all share (format): in vivo
Experiment [1] has as its system Blumeria graminis f. sp. hordei. Briefly: Test Example D: Powdery mildew on barley. Particulars: Powdery mildew on barley.
The subject of another experiment is Puccinia recondita. Briefly: Test Example E: Brown rust on wheat. As to conditions: Brown rust on wheat.
A further experiment deals with Plasmopara viticola. Briefly: Test Example G: Downy mildew on vine. Particulars: Downy mildew on vine; 250 ppm sprayed, 2.5 ml/pot; 7 to 10 days after inoculation.
The next experiment deals with Botrytis cinerea. In words: Test Example B: Gray mold on tomato. Particulars: Gray mold on tomato.
The test system of another experiment is Alternaia brassicicola. In words: Test Example C: Alternaria sooty spot on cabbage. As to conditions: Alternaria sooty spot on cabbage.

Take `CCn1c(-c2c(F)cc(F)cc2F)c(-n2cc(Br)cn2)cc(Br)c1=O` [Compound 77]: in experiment [1], the “Test D control value” was “H (H shows the control value more than 50%)”. In addition, the “Test E control value” in the experiment with Puccinia recondita is “H (H shows the control value more than 50%)”. Also, the “Test G control value” in the experiment on Plasmopara viticola is “L (L shows the control value of 50% or less)”. Besides, the “Test B control value” with Botrytis cinerea is given as “H (H shows the control value more than 50%)”. Besides, the “Test C control value” with Alternaia brassicicola is listed as “H (H shows the control value more than 50%)”.
In the case of `CCn1c(-c2c(F)cc(OC)cc2F)c(-n2cc(Br)cn2)cc(Br)c1=O` [Compound 78], in experiment [1], the “Test D control value” is listed as “H (H shows the control value more than 50%)”. Besides, in the experiment on Puccinia recondita, the “Test E control value” is listed as “H (H shows the control value more than 50%)”. Also, the “Test G control value” in the experiment with Plasmopara viticola was “L (L shows the control value of 50% or less)”. Moreover, the “Test B control value” in the experiment with Botrytis cinerea was “H (H shows the control value more than 50%)”. Moreover, the “Test C control value” in the experiment with Alternaia brassicicola is given as “H (H shows the control value more than 50%)”.
Turning to `CCn1c(-c2c(F)cc(OC)cc2F)c(-c2cccnc2Cl)ccc1=O` [Compound 79], in experiment [1], the “Test D control value” was “H (H shows the control value more than 50%)”. For the same compound, in the experiment on Puccinia recondita, the “Test E control value” is “H (H shows the control value more than 50%)”. The “Test G control value” with Plasmopara viticola was “L (L shows the control value of 50% or less)”. Besides, the “Test B control value” with Botrytis cinerea is reported as “H (H shows the control value more than 50%)”. Also, in the experiment with Alternaia brassicicola, the “Test C control value” was “H (H shows the control value more than 50%)”.
For `CCn1c(-c2c(F)cc(OC)cc2F)c(-c2cccnc2Cl)cc(Cl)c1=O` [Compound 80], the “Test D control value” in experiment [1] is recorded as “H (H shows the control value more than 50%)”. Also, in the experiment with Puccinia recondita, the “Test E control value” was “H (H shows the control value more than 50%)”. In addition, in the experiment with Plasmopara viticola, the “Test G control value” is listed as “L (L shows the control value of 50% or less)”. For the same compound, the “Test B control value” with Botrytis cinerea is recorded as “H (H shows the control value more than 50%)”. Besides, in the experiment on Alternaia brassicicola, the “Test C control value” is “H (H shows the control value more than 50%)”.
On to `CCn1c(-c2c(F)cc(OC)cc2F)c(-c2cccnc2Cl)cc(Br)c1=O` [Compound 81], for which, in experiment [1], the “Test D control value” is recorded as “H (H shows the control value more than 50%)”. Further, in the experiment on Puccinia recondita, the “Test E control value” is “H (H shows the control value more than 50%)”. In the experiment on Plasmopara viticola, the “Test G control value” is given as “L (L shows the control value of 50% or less)”. For the same compound, the “Test B control value” with Botrytis cinerea was “H (H shows the control value more than 50%)”. For the same compound, the “Test C control value” in the experiment on Alternaia brassicicola is recorded as “H (H shows the control value more than 50%)”.
On to `CCn1c(-c2c(F)cc(F)cc2F)c(-n2ncc(C)c2Cl)ccc1=O` [Compound 82], for which the “Test D control value” in experiment [1] is on record as “H (H shows the control value more than 50%)”. In addition, the “Test E control value” with Puccinia recondita was “H (H shows the control value more than 50%)”. In addition, in the experiment on Plasmopara viticola, the “Test G control value” was “H (H shows the control value more than 50%)”. In addition, the “Test B control value” with Botrytis cinerea is recorded as “H (H shows the control value more than 50%)”. Besides, the “Test C control value” in the experiment with Alternaia brassicicola is “H (H shows the control value more than 50%)”.
As for `CCn1c(-c2c(F)cc(F)cc2F)c(-n2ncc(C)c2Cl)cc(Cl)c1=O` [Compound 83], the “Test D control value” in experiment [1] is given as “H (H shows the control value more than 50%)”. Besides, the “Test E control value” in the experiment with Puccinia recondita is reported as “H (H shows the control value more than 50%)”. In the experiment on Plasmopara viticola, the “Test G control value” is recorded as “L (L shows the control value of 50% or less)”. For the same compound, in the experiment on Botrytis cinerea, the “Test B control value” was “H (H shows the control value more than 50%)”. For the same compound, the “Test C control value” in the experiment with Alternaia brassicicola is “H (H shows the control value more than 50%)”.
For the compound `CCn1c(-c2c(F)cc(F)cc2F)c(-n2cccn2)cc(Cl)c1=O` [Compound 84], the “Test D control value” in experiment [1] is recorded as “H (H shows the control value more than 50%)”. Also, the “Test E control value” in the experiment on Puccinia recondita was “H (H shows the control value more than 50%)”. Further, in the experiment on Plasmopara viticola, the “Test G control value” is reported as “L (L shows the control value of 50% or less)”. Also, the “Test B control value” with Botrytis cinerea is “H (H shows the control value more than 50%)”. For the same compound, the “Test C control value” in the experiment on Alternaia brassicicola is listed as “H (H shows the control value more than 50%)”.
Regarding `CCn1c(-c2c(F)cc(F)cc2F)c(-n2cc(C)cn2)cc(Cl)c1=O` [Compound 85], the “Test D control value” in experiment [1] is recorded as “H (H shows the control value more than 50%)”. Further, the “Test E control value” in the experiment on Puccinia recondita is given as “H (H shows the control value more than 50%)”. For the same compound, in the experiment on Plasmopara viticola, the “Test G control value” is on record as “L (L shows the control value of 50% or less)”. Moreover, the “Test B control value” in the experiment on Botrytis cinerea is on record as “H (H shows the control value more than 50%)”. The “Test C control value” with Alternaia brassicicola is listed as “H (H shows the control value more than 50%)”.
For `CCn1c(-c2c(F)cc(F)cc2F)c(-n2cc(C)cn2)cc(C)c1=O` [Compound 86], the “Test D control value” in experiment [1] was “H (H shows the control value more than 50%)”. In the experiment on Puccinia recondita, the “Test E control value” is recorded as “H (H shows the control value more than 50%)”. In addition, in the experiment with Plasmopara viticola, the “Test G control value” is “L (L shows the control value of 50% or less)”. Further, the “Test B control value” with Botrytis cinerea is on record as “H (H shows the control value more than 50%)”. In the experiment on Alternaia brassicicola, the “Test C control value” is on record as “H (H shows the control value more than 50%)”.
As for `CCn1c(-c2c(F)cccc2F)c(-c2cnc(Cl)o2)cc(Cl)c1=O` [Compound 87], in experiment [1], the “Test D control value” was “L (L shows the control value of 50% or less)”. Besides, the “Test E control value” with Puccinia recondita is on record as “L (L shows the control value of 50% or less)”. Further, in the experiment with Plasmopara viticola, the “Test G control value” was “L (L shows the control value of 50% or less)”. Besides, the “Test B control value” with Botrytis cinerea is “L (L shows the control value of 50% or less)”. The “Test C control value” in the experiment with Alternaia brassicicola is on record as “H (H shows the control value more than 50%)”.
`CCn1c(-c2c(F)cc(F)cc2F)c(-c2cnco2)cc(Br)c1=O` [Compound 89]: the “Test D control value” in experiment [1] is “L (L shows the control value of 50% or less)”. Besides, the “Test E control value” in the experiment with Puccinia recondita is on record as “H (H shows the control value more than 50%)”. The “Test G control value” in the experiment with Plasmopara viticola was “L (L shows the control value of 50% or less)”. Besides, the “Test B control value” in the experiment on Botrytis cinerea was “H (H shows the control value more than 50%)”. Besides, the “Test C control value” with Alternaia brassicicola is on record as “H (H shows the control value more than 50%)”.
`CCn1c(-c2c(F)cc(OC)cc2F)c(-c2cnco2)cc(Br)c1=O` [Compound 90]: the “Test D control value” in experiment [1] is given as “L (L shows the control value of 50% or less)”. In addition, the “Test E control value” in the experiment with Puccinia recondita is recorded as “H (H shows the control value more than 50%)”. Besides, the “Test G control value” in the experiment on Plasmopara viticola is “L (L shows the control value of 50% or less)”. Besides, the “Test B control value” in the experiment with Botrytis cinerea is recorded as “H (H shows the control value more than 50%)”. Also, in the experiment on Alternaia brassicicola, the “Test C control value” is listed as “H (H shows the control value more than 50%)”.
For `CCn1c(-c2c(F)cccc2F)c(-c2ocnc2OC)cc(Cl)c1=O` [Compound 91], in experiment [1], the “Test D control value” is given as “L (L shows the control value of 50% or less)”. For the same compound, in the experiment on Puccinia recondita, the “Test E control value” is “L (L shows the control value of 50% or less)”. For the same compound, in the experiment with Plasmopara viticola, the “Test G control value” was “L (L shows the control value of 50% or less)”. The “Test B control value” in the experiment on Botrytis cinerea is recorded as “L (L shows the control value of 50% or less)”. The “Test C control value” in the experiment with Alternaia brassicicola was “H (H shows the control value more than 50%)”.
In the case of `CCn1c(-c2c(F)cccc2F)c(-c2cnc(I)o2)cc(Cl)c1=O` [Compound 92], the “Test D control value” in experiment [1] was “L (L shows the control value of 50% or less)”. In addition, the “Test E control value” in the experiment with Puccinia recondita is recorded as “L (L shows the control value of 50% or less)”. In addition, the “Test G control value” with Plasmopara viticola was “L (L shows the control value of 50% or less)”. The “Test B control value” with Botrytis cinerea is “H (H shows the control value more than 50%)”. The “Test C control value” in the experiment on Alternaia brassicicola is “L (L shows the control value of 50% or less)”.
